According to the supplement of paper PMC10126150:
Values marked as one replicate rest on one cluster of the flow cell; about a third of the high ones do not repeat.

System: ATP
Assay: switch fluorescence ratio, 500 uM ATP over buffer (Cy3 cluster intensity, sum of 5 cycles each) (fold (ratio)); higher = stronger signal-on switching upon ATP binding; sequences stand for … in TCGTCGGCAGCGTCAGATGTGTATAAGAGACAGTTTTTTTTTTTTTTTTTTTTTTTTT…TC
Details: aptamer strand: ATP DNA aptamer (quencher-CACCTGGGGGAGTATTGCGGAGGAAGG + anchor), 100 nM annealed; ATP concentration: 500 uM; one replicate
Summary of the method: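 Five buffer/ATP imaging cycles were run on Cy3-labelled switching-strand clusters on a modified Illumina MiSeq flow-cell, with NaOH stripping and re-annealing between cycles. In each cycle, clusters annealed to 100 nM quencher-labelled ATP aptamer were imaged in selection buffer, then after 15 min with 500 uM ATP at 22 °C. Per cluster, the fluorescence ratio is summed target-cycle over summed buffer-cycle Cy3 intensity, averaged per switch-domain sequence. Only clusters within 100-1000 RFU were kept.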
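Also: ATP exposure 15 min at 22 °C before imaging.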

GGGAGTATCG
switch fluorescence ratio: 1.02

TAGCCGTCTC
switch fluorescence ratio: 1.06

CAGCAGCCCT
switch fluorescence ratio: 1.16

TATAAAGTCA
switch fluorescence ratio: 0.985

TTATTTAGG
switch fluorescence ratio: 0.996

CACATACTTC
switch fluorescence ratio: 1.34

AATCATATTG
switch fluorescence ratio: 0.971

GCTAGGCAGC
switch fluorescence ratio: 0.986

TCGGCGTGCT
switch fluorescence ratio: 1.02

GTGACGCCGG
switch fluorescence ratio: 0.967

CAGTTAACA
switch fluorescence ratio: 0.999

GACTTATGTC
switch fluorescence ratio: 0.991

AGTAGCTGTA
switch fluorescence ratio: 1.14

CACAATGGGT
switch fluorescence ratio: 1.04

TATAGGTGAT
switch fluorescence ratio: 1.05

GAGATAGGCG
switch fluorescence ratio: 1.12

GCAACCGGAT
switch fluorescence ratio: 1.01

AAAGAAAGGC
switch fluorescence ratio: 0.983

GAAGTTTCAG
switch fluorescence ratio: 0.957

AAGCTATATC
switch fluorescence ratio: 1.77

CCACTAGCCA
switch fluorescence ratio: 1.2

GGAAGGAGCG
switch fluorescence ratio: 1.02

TATGCCACAA
switch fluorescence ratio: 1.05

GTAATAGTAG
switch fluorescence ratio: 0.995

ACTTTCTTGC
switch fluorescence ratio: 1

AAAGCGATAA
switch fluorescence ratio: 2.26

ACTCAGTAAG
switch fluorescence ratio: 1.09

TCTGCGATGA
switch fluorescence ratio: 1.14

GCAGAGCCAG
switch fluorescence ratio: 0.978

ATTTCAGAGT
switch fluorescence ratio: 0.999

TCACCGCTGG
switch fluorescence ratio: 1.16

TACAATGAAA
switch fluorescence ratio: 1.03

GGCAGGCGGC
switch fluorescence ratio: 1.05

GGTAACGCAA
switch fluorescence ratio: 4.17

AGGACTGGCG
switch fluorescence ratio: 1.07

AATAACGGCC
switch fluorescence ratio: 1.05

AGGTATAAAC
switch fluorescence ratio: 1.02

TATTTCGGAT
switch fluorescence ratio: 0.993

CTGAGGGGCA
switch fluorescence ratio: 1.01

TAGCGCCGAC
switch fluorescence ratio: 1.03

TTGTAATTGG
switch fluorescence ratio: 1.02

CAGTTACTTC
switch fluorescence ratio: 1.04

CATACGAGAG
switch fluorescence ratio: 1.05

CCTTCTGGGC
switch fluorescence ratio: 1.3

TTCTCTTCGC
switch fluorescence ratio: 1.03

TTTCTAACTA
switch fluorescence ratio: 1.01

ATTACAGC
switch fluorescence ratio: 1.02

TCCTCACGCT
switch fluorescence ratio: 5.06

TTTGTTACT
switch fluorescence ratio: 1

GGCTGTATGG
switch fluorescence ratio: 0.97

GCAAGCCCTG
switch fluorescence ratio: 0.986

CGTTGTACAT
switch fluorescence ratio: 1.02

GACGTCCCTT
switch fluorescence ratio: 0.989

AACGGTTGC
switch fluorescence ratio: 1.02

GTGGGGTACG
switch fluorescence ratio: 0.979

GGGCGCAATA
switch fluorescence ratio: 1.3

GTATTCGCT
switch fluorescence ratio: 0.986

CACATAAGCC
switch fluorescence ratio: 1.05

CGAAGGAAAG
switch fluorescence ratio: 0.974

CGGGATGAG
switch fluorescence ratio: 1.01

TTCCGGCAG
switch fluorescence ratio: 1.21

GAGGATGTAT
switch fluorescence ratio: 1.07

AAATGGACAT
switch fluorescence ratio: 0.98

CGGAGAACTT
switch fluorescence ratio: 1.01

TGCTTTAACA
switch fluorescence ratio: 1.02

TCCGCTCGGA
switch fluorescence ratio: 0.991

GACACGGGGG
switch fluorescence ratio: 0.985

CTGGGTATAA
switch fluorescence ratio: 1

CACGATTTTA
switch fluorescence ratio: 0.968

AGGCAGGAAT
switch fluorescence ratio: 0.96

TTTGTGGAAT
switch fluorescence ratio: 1.02

TTCTGGCCAC
switch fluorescence ratio: 0.991

GCATGCTTGG
switch fluorescence ratio: 1

TAATAGCGCG
switch fluorescence ratio: 0.995

AGAGGAGACT
switch fluorescence ratio: 1.06

CATGCGTTT
switch fluorescence ratio: 1

CCACCTTGGT
switch fluorescence ratio: 1.06

AACGTCACGG
switch fluorescence ratio: 1.49

TCGCGGAATA
switch fluorescence ratio: 1.06

CGTATTACAG
switch fluorescence ratio: 0.997

GCCCATAAAA
switch fluorescence ratio: 1.04

TATGACTCTA
switch fluorescence ratio: 1.02

TTCACCGGTG
switch fluorescence ratio: 1.02

CGGTCTGACT
switch fluorescence ratio: 0.953

AAGCAACAGC
switch fluorescence ratio: 1.1
